This note sets out measurements from patent US20240261263A1, “COMPOUNDS AND METHODS TO SENSITIZE CANCER CELLS TO TYROSINE KINASE INHIBITORS” (Da Zen Theranostics, Inc., priority 2016, published 2024).

One assay deals with H1975. The assay can be described thus: Crystal Violet cell proliferation assay, H1975. The following applies: Example 4 lung carcinoma cell line, with the sensitizer DZ1-SIM amide at about 5 uM.
For the next assay, the system named is A549 parental. The assay can be described thus: Crystal Violet cell proliferation assay, A549. To be noted: read-out: IC50 A549 parental; single agent, 72 h, mean ± SEM.
Assay [1] relates to A549/DDP (Cisplatin Resistant). The experiment in a line: Crystal Violet cell proliferation assay, A549/DDP. To be noted: read-out: IC50 A549/DDP (Cisplatin Resistant); single agent, 72 h, mean ± SEM.
The next assay has as its system 95C (Non-Met). The experiment in a line: Crystal Violet cell proliferation assay, 95C. It counts as cell-based, human. The following applies: single agent, 72 h, mean ± SEM.
Another assay concerns 95D (Met). The experiment in a line: Crystal Violet cell proliferation assay, 95D. To be noted: single agent, 72 h, mean ± SEM. It counts as cell-based, human.

As for `COc1cc2ncnc(Nc3ccc(F)c(Cl)c3)c2cc1OCCCN1CCOCC1` [Gefitinib], the “Gefitinib concentration giving excellent TKI effects (crystal violet assay)” value with H1975 was “about 0.5 uM”.
In the case of DZ1-Cisplatin ester, the IC50 amounted to 1.8 ± 1 µM in the assay on A549 parental, 10.2 ± 1.2 µM in assay [1], 2.4 ± 1.1 µM in the assay with 95C (Non-Met) and 13.7 ± 1.3 µM in the assay on 95D (Met).
